# Experimental data as given in PubChem BioAssay AID463173 (ICCB-Longwood Screening Facility, Harvard Medical School, 2010).
# Among all 52,000 compounds or so, about 4,300 (8.3%) were called active. Cut-off read from the data, not from the text of the source: active = survival mostly below about 52% (no sharp cut-off); inactive = mostly above about 56%. Some of the results follow.
# Tested on: DeltatarO mutant
# Test: growth inhibition of S. aureus wild type versus tarO mutant, primary screen, teichoic acid synthesis inhibitors, RN4220, OD600 (AID 463173)
# Details: OD600, 18 h, hits give low values, screened at 18.75 µg/mL (by protocol)
row,SMILES,survival
1,COC(=O)c1c(-c2ccc(Cl)cc2)noc1N1CCN(c2cccc(C)c2C)CC1,inactive: 79%
2,CCc1cnc2c(c1SCC(=O)Nc1ccc(OC)c(OC)c1)c(=O)n(C)c(=O)n2C,inactive: 94%
3,c1ccc(-n2nc3ccc4nonc4c3n2)cc1,inactive: 86%
4,CCOC(=O)Cn1c(=O)oc2cc(S(=O)(=O)N3CCCC(C)C3)ccc21 (configuration not stated),inactive: 130%
5,CCOC(=O)c1cc(S(=O)(=O)N2CCN(c3cccc(OC)c3)CC2)[nH]n1,inactive: 108%
6,CCCCn1cc(S(=O)(=O)c2ccc(Cl)cc2)c(=O)c2cc(F)c(N3CCCC(C)C3)cc21 (configuration not stated),inactive: 117%
7,CC(=O)N1c2c(cc(Br)cc2S(=O)(=O)Nc2ccc(OC(F)(F)F)cc2)CC1C (configuration not stated),inactive: 66%
8,CCOc1ccc(CNC(=O)Cn2cc3c(n2)-c2c(oc(C(=O)N4CCCC4)c2C)CC3)cc1,inactive: 84%
9,COc1ccc(S(=O)(=O)N(CCc2ccccc2)CC(N)=O)cc1,inactive: 88%
10,CCCC1=Nc2cc(C(=O)NCC(C)c3ccccc3)ccc2Sc2ccccc21 (configuration not stated),inactive: 62%
11,COc1cccc(CNC(=O)Cn2nc3c(cc2=O)CCCC3)c1OC,inactive: 92%
12,CC1CCCN(C(=O)CCS(=O)(=O)c2cc3c(cc2Cl)NC(=O)CO3)C1 (configuration not stated),inactive: 84%
13,Cc1ccc(C2c3c(-c4ccccc4O)n[nH]c3C(=O)N2CCc2ccccc2)cc1 (configuration not stated),active: 32%
14,COc1ccc(NC(=O)CSc2nc(-c3ccc(OC)c(OC)c3)[nH]c2-c2ccc(C)cc2)cc1,inactive: 97%
15,COc1ccc(NCc2cc3cc4c(cc3n(CC(=O)Nc3ccccc3)c2=O)OCO4)cc1,inactive: 94%
16,CCOC(=O)Cc1ccc(NC(=O)N(C(C)C)C2CCN(C(C)=O)CC2)cc1,inactive: 80%
17,O=C(Nc1ccc(Cl)cc1)c1cc(S(=O)(=O)N2CCCc3ccccc32)ccc1F,inactive: 116%
18,O=C(CCCn1c(=O)[nH]c2ccsc2c1=O)N1CCN(c2cccc(C(F)(F)F)c2)CC1,inactive: 73%
19,Cc1cc(Cl)ccc1NC(=O)CN1C(=O)COc2ccc(S(=O)(=O)N3CCC(C)CC3)cc21,inactive: 101%
20,CCOC(=O)c1noc2ncn(Cc3cccc(C#N)c3)c(=O)c12,inactive: 130%
21,Cc1c(C(=O)OC2CCC(C)CC2)[nH]c2c1C(=O)CC(c1ccccc1Cl)C2 (configuration not stated),inactive: 81%
22,CCOc1ccc(CCNC(=O)CCCc2nnc3n(C)c(=O)c4sccc4n23)cc1OCC,inactive: 93%

row,SMILES,survival
1,COc1ccccc1CN(Cc1ccco1)c1cnc(S(C)(=O)=O)nc1C(=O)Nc1ccccc1Cl,active: 46%
2,CCNc1nc(NC(C)CC)nc(Oc2ccc(OCC)nn2)n1 (configuration not stated),inactive: 139%
3,COc1ccc(NC(=O)NCc2c(-n3cccc3)sc3c2CCCC3)c(OC)c1,inactive: 66%
4,CCc1cccc(C)c1NC(=O)NC1COc2ccccc2C1 (configuration not stated),inactive: 106%
5,COc1ccc(OCC(=O)Nc2nc(-c3ccc(Br)cc3)ns2)cc1,inactive: 59%
6,CCOc1ccc2c(c1)sc1nc(=O)n(-c3ccc(Cl)c(Cl)c3)c(=O)n12,inactive: 88%
7,CCOC(=O)CCn1cnc2onc(-c3cc(OC)ccc3Cl)c2c1=O,inactive: 88%
8,Cc1ccc(OCc2nc(-c3ccc(C(=O)N4CCN(c5cccc(C(F)(F)F)c5)CC4)cc3)oc2C)cc1,inactive: 71%
9,N#CC(C#N)=Cc1ccc(OCC(O)Cn2c3ccccc3c3ccccc32)cc1 (configuration not stated),inactive: 75%
10,CSc1cccc(NC(=O)C2CCN(S(=O)(=O)c3ccc4c(c3)CCCN4C(=O)C3CCC3)CC2)c1,inactive: 71%
11,COc1ccc(N(CC(C)C)S(=O)(=O)c2nnc(NC(=O)c3cccs3)s2)cc1,active: 42%
12,NS(=O)(=O)c1ccc(N(C(=O)Cn2nnc3ccccc32)C(C(=O)NC2CCCC2)c2cccs2)cc1 (configuration not stated),inactive: 62%
13,Cc1c(Cl)cccc1NC(=O)CNS(=O)(=O)c1cccs1,inactive: 86%
14,Cc1cc(=O)[nH]c2nnc(SCc3c(F)cccc3Cl)n12,inactive: 125%
15,CS(=O)(=O)NCC(c1ccco1)N1CCN(c2ccc(F)cc2)CC1 (configuration not stated),inactive: 87%
16,COCCNC(=O)CCn1c(=O)c2cc(OC)c(OC)cc2n(CC(=O)Nc2ccccc2C)c1=O,inactive: 93%
17,O=S(=O)(c1ccc(-c2cc(C(F)(F)F)on2)s1)N1CCN(c2ccccc2)CC1,inactive: 75%
18,COc1ccc(CSc2nnc(C)s2)cc1F,inactive: 106%
19,CCN(C(=O)CSc1nnc2scc(-c3cccc(OC)c3)n12)c1ccccc1,inactive: 94%
20,Cc1cccc(C)c1NC(=O)C(=O)NCC(c1ccc2c(c1)OCO2)N1CCOCC1 (configuration not stated),inactive: 80%
21,CCOC(=O)c1cnc2c(Cl)cc(Cl)cc2c1Nc1cc(C(=O)O)ccc1C,inactive: 60%
22,Cc1cccc(NC(=O)c2ccc3c(O)c(S(=O)(=O)c4ccccc4)c(=O)[nH]c3c2)c1C,inactive: 88%

row,SMILES,survival
1,Cc1ccccc1-c1nc(CS(=O)(=O)CC(=O)NCCc2ccccc2)c(C)o1,inactive: 59%
2,O=C(Nc1ccc2nc(SCC(=O)N3CCc4ccccc43)sc2c1)c1cccc(F)c1,inactive: 69%
3,CCOC(=O)c1sc(=S)n(C)c1C,inactive: 88%
4,COc1ccc(Cl)cc1NC(=O)CSc1nc2ccccc2c2nc(-c3ccccc3)nn12,inactive: 94%
5,Cc1ccc(C(=O)N2CCc3cc(CNC(=O)c4ccc(Br)cc4)ccc32)cc1,inactive: 83%
6,Cc1ccc(C(=O)Nc2ccccc2)cc1S(=O)(=O)Nc1ccc(Br)cc1,active: 6%
7,CCn1c(SCc2cccc(Br)c2)nnc1-c1nonc1NC(C)=O,inactive: 108%
8,CC(C)CNC(=O)C(=O)Nc1c2c(nn1-c1ccccc1)CS(=O)(=O)C2,inactive: 81%
9,CSc1cccc(NC(=O)Cn2c(=O)n(Cc3ccccc3)c(=O)c3sc4ccccc4c32)c1,inactive: 91%
10,CC(=O)Nc1cc(C(=O)NCc2ccc(C)cc2)ccc1S(=O)(=O)c1ccc(Cl)cc1,inactive: 87%
11,CCOc1ccc2nc(NCCNC(=S)NC)c(C#N)cc2c1,inactive: 79%
12,COCCCn1c(=N)c(C(=O)NCc2ccco2)cc2c(=O)n3cccc(C)c3nc21,inactive: 57%
13,CCc1ccccc1NC(=O)Nc1cc(C(=O)NCc2cccc(F)c2)ccc1N1CCCC1,inactive: 88%
14,O=C(Cn1ncn2nc(-c3cccs3)cc2c1=O)NCc1ccc(Cl)cc1,inactive: 63%
15,CCc1ccc(S(=O)(=O)c2nnn3c2nc(Nc2ccc(C)c(Cl)c2)c2sccc23)cc1,inactive: 41%
16,Cc1oc(-c2cccc(Cl)c2)nc1CN1CCCC(C(=O)NCCc2ccc(Cl)cc2)C1 (configuration not stated),active: -6%
17,Cc1cccc(-n2ncc(C(=O)N3CCN(Cc4ccccc4)CC3)c2C2CCN(C(=O)OC(C)(C)C)CC2)c1,inactive: 75%
18,CCOc1ccc(N(C)S(=O)(=O)c2c(C(=O)N3CCC(C)CC3)c(C)n(C)c2C)cc1,inactive: 102%
19,COc1ccc(Cn2c(CCC(=O)Nc3ccc(C)cc3)nc3cccnc32)cc1,inactive: 105%
20,CCOc1ccccc1NC(=O)N1c2ccccc2Sc2ccccc21,inactive: 55%
21,Cc1cc(C)n(-c2nc3cc(Cl)ccc3nc2Nc2ccc(C)c(F)c2)n1,inactive: 91%
22,O=C(CN(Cc1ccc2c(c1)OCO2)C(=O)c1cnsn1)NC1CCCC1,inactive: 89%

row,SMILES,survival
1,CCn1ccc2cc(S(=O)(=O)N3CCC(C(=O)NCc4cccc(Cl)c4)CC3)ccc21,inactive: 89%
2,CCOC(=O)c1sc(N/C=C(\C#N)c2nc3cc(Cl)ccc3o2)c(C#N)c1C,inactive: 81%
3,Cc1ccc(-n2ncc(C(=O)NCCN3CCCC3)c2C2CCN(C(=O)OC(C)(C)C)CC2)cc1,inactive: 107%
4,O=C(NC1CCN(C(=O)Nc2cccc(F)c2)CC1)c1ccco1,inactive: 88%
5,Cc1cccc(NC(=O)Cn2ncc3c4ccccc4n(Cc4ccccc4)c3c2=O)c1C,inactive: 89%
6,Cc1ccc(S(=O)(=O)CCC(=O)Nc2ccc(OC(F)(F)F)cc2)cc1,inactive: 72%
7,CCc1ccccc1NC(=O)Cn1c(=O)n(CCCCCC(=O)NCc2ccc(C)cc2)c(=O)c2sccc21,inactive: 66%
8,O=C(c1ccc2c(c1)N(Cc1ccccc1F)C(=O)c1ccccc1S2(=O)=O)N1CCc2ccccc21,inactive: 80%
9,CCC(Sc1nc2ccncc2[nH]1)C(=O)Nc1cc(Cl)ccc1C (configuration not stated),inactive: 136%
10,COc1cc(Cl)c(C)cc1NC(=O)CSc1nc2c(c(=O)[nH]1)CCC2,inactive: 63%
11,Cc1nn(-c2ccccc2)c2c1cc1c(=O)[nH]c(=O)nc-1n2-c1cccc(Cl)c1,inactive: 80%
12,COc1ccccc1/C=C/c1nc(C#N)c(N2CCN(C)CC2)o1,inactive: 92%
13,Cc1ccc(CNC(=O)C2CCN(S(=O)(=O)c3cccc4nonc34)CC2)cc1,inactive: 65%
14,COc1ccccc1NC(=O)CSc1nnc(NC(=O)NC2CCCCC2)s1,inactive: 83%
15,Oc1ccc(CNc2ccccc2C(F)(F)F)c2cccnc12,inactive: 124%
16,Cc1cc(=O)c2cc(C(=O)Nc3ccc(C)c(C)c3)ccc2[nH]1,inactive: 89%
17,Cc1ccc2oc(C(=O)Nc3ccc(S(=O)(=O)N(C)c4ccccc4)cc3)cc(=O)c2c1,inactive: 99%
18,O=C(Nc1ccccc1)NC1CCN(CCCN2C(=O)c3ccccc3C2=O)CC1,inactive: 108%
19,CCc1ccc(NCc2cc3cc4c(cc3n(CC(=O)Nc3ccccc3OC)c2=O)OCCO4)cc1,inactive: 87%
20,COc1ccc(C(=O)N2CCC(c3nc4ccccc4s3)CC2)cc1Cl,inactive: 62%
21,Cc1cc(NC(=O)Nc2nnc(N(C)C3CCCCC3)s2)ccc1Br,inactive: 72%
